Results from PubChem BioAssay AID1768 (National Center for Advancing Translational Sciences (NCATS), 2009).
Out of some 270,000 compounds screened, about 620 (0.23%) were called active. Inconclusive results, whose numbers are uncertain, are shown with a selection of clear calls. Calls follow the shape of the dose curve; as a rule, active = well fitted inhibition curve with a large enough effect in the polarisation, with a control signal flat (not every such curve was filed as active); inconclusive = small, poorly fitted or top-dose-only effect, or effect the other way, or a change in a side signal; inactive = no such curve, though single readings can be large or run the other way; the % refers to the polarisation. A potency beside an inconclusive call is a rough fit, not a confirmed value. A note “side channel” means that the fit belongs to a control or component signal, not to the main read-out.
For FP activity change, negative = inhibition in this document: % of control where 0% means no effect.
Potency is read from the fitted curve at half-maximal effect; tags tell the direction and shape of the fitted curve or compound fluorescence and quenching.

What follows are compounds tested against Menin (Homo sapiens) (UniProt O00255) (assay: qHTS Assay for Inhibitors Targeting the Menin-MLL Interaction in MLL Related Leukemias: Competition With Texas Red Labeled MLL-derived Mutant Peptide). Conditions: fluorescence polarization; FP activity change, negative = inhibition: at 61.6 µM (top of the series).
Chain of UniProt O00255 (O00255 whole entry, looked up): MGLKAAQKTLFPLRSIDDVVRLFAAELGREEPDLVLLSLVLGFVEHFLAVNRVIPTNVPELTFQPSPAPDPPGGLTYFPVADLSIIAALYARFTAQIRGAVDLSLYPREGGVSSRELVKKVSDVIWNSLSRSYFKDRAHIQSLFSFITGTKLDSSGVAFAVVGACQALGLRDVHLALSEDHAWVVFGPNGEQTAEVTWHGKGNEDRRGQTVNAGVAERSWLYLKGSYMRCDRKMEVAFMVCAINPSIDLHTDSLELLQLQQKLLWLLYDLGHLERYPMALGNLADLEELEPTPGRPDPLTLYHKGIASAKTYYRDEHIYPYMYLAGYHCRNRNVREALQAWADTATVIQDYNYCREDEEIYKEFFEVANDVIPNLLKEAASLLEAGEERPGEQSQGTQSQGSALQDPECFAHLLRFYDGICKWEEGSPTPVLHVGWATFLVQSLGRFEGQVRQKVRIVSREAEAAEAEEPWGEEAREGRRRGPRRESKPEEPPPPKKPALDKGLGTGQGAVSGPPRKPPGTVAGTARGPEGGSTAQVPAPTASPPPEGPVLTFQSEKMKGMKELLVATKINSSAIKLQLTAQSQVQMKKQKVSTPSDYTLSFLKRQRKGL
`O=C(Cn1nnc(-c2ccccc2NC(=O)c2cccs2)n1)Nc1ccccc1` was tested, and the Potency was inconclusive: 17.8 µM [quencher, side channel, partial curve].
For `CCN1CCN(c2nc3sc4c(c3c(=O)n2-c2ccc(OC)cc2)CCCCC4)CC1`, the Potency was inconclusive: 10 µM [fluorescent, side channel, partial curve].
`COC(=O)Cc1cc(=O)n(-c2nc3ccccc3s2)[nH]1` was tested, and the Potency was inconclusive: 25.1 µM [quencher, side channel, partial curve].
In the case of `COc1cc(/C=C2\SC(=S)N(NC(=O)c3ccccc3OC)C2=O)ccc1O`, the Potency is reported as inconclusive: 28.2 µM [fluorescent, side channel, partial curve].
`Cc1ccc(N2C(S)=C(C#N)C(=O)NC2c2ccco2)cc1` (configuration not stated) was tested, and the Potency was inconclusive: 28.2 µM [quencher, side channel, single point].
With `COc1ccc2[nH]cc(CCNC(=S)NCCc3ccccc3)c2c1` the Potency was inconclusive: 14.1 µM [quencher, side channel, partial curve].
For `Cc1c(NC(=S)NC(=O)c2cccc3ccccc23)cccc1C(=O)O`, the “FP activity change, negative = inhibition” value was inactive: 1.77%.
For `COCCNC(=O)C1CCCN(S(=O)(=O)c2cccc3nsnc23)C1` (configuration not stated), the Potency was inconclusive: 35.5 µM [quencher, side channel, single point].
In the case of `CCCCc1nc2c(c3c1C[C@H](C)OC3)CN(C(=O)c1ccco1)CC2`, the FP activity change, negative = inhibition is reported as inactive: 0.561% [at 11.7 µM].
For `COc1cc(NC(=O)Nc2cccc([N+](=O)[O-])c2)cc(OC)c1`, the Potency was inconclusive: 14.1 µM [quencher, side channel, partial curve].
With `C/C(N)=C(/C#N)C(=O)CSc1nc2cc(Cl)ccc2s1` the Potency was inconclusive: 22.4 µM [quencher, side channel, partial curve].
With `Cc1cccc2cc(CN(Cc3ccco3)C(c3nnnn3CCc3ccccc3)C(C)C)c(=O)[nH]c12` (configuration not stated) the Potency was inconclusive: 2.82 µM [fluorescent, side channel, full curve, poor fit].
In the case of `CC(C(=O)Nc1ccc2c(c1)OCCO2)n1nnc(-c2ccccc2)n1` (configuration not stated), the Potency is reported as inconclusive: 12.6 µM [quencher, side channel, partial curve].
For `CN=C(Nc1ccc(Br)cc1)SC1CC(=O)N(c2ccc(OC)cc2)C1=O` (configuration not stated), the Potency was inconclusive: 15.8 µM [quencher, side channel, partial curve].
`CCOc1ccc(NC(=S)NC23CC4CC(CC(C4)C2)C3)cc1` was tested, and the Potency was inconclusive: 17.8 µM [fluorescent, side channel, single point].
In the case of `CCOC(=O)c1ccc(NC(=S)NCCc2ccccc2)cc1`, the Potency is reported as inconclusive: 39.8 µM [quencher, side channel, single point].
For `COc1ccc2[nH]c(C)c(CCNC(=S)Nc3cc(C)cc(C)c3)c2c1`, the Potency was inconclusive: 35.5 µM [quencher, side channel, partial curve].
For `CN1CCN(CC(=O)Nc2nnc(-c3cccs3)s2)CC1`, the “FP activity change, negative = inhibition” value was inactive: 5.6%.
`Cc1ccc(/C=C/C(=O)c2ccccc(=O)c2O)c(C)c1` was tested, and the Potency was inconclusive: 20 µM [quencher, side channel, single point].
For `O=C(O)c1ccc(N2C(=O)C3C4c5ccccc5C(Br)(c5ccccc54)C3C2=O)cc1` (configuration not stated), the Potency was inconclusive: 14.1 µM [quencher, side channel, partial curve].
With `Brc1ccccc1OCCCCn1cnc2ccccc21` the Potency was inconclusive: 39.8 µM [fluorescent, side channel, partial curve].
`CC(NCC1(N2CCOCC2)CCCCC1)C(=O)Nc1ccc(Cl)cc1Cl` (configuration not stated) was tested, and the Potency was inconclusive: 11.2 µM [inhibitor, partial curve].
With `Cc1ccc(C)n1NC(=O)c1ccc(Cl)cc1Cl` the Potency was inconclusive: 22.4 µM [quencher, side channel, single point].
`COc1ccc(CCn2c(-c3ccco3)nc3nc4ccccc4nc32)cc1` was tested, and the Potency was inconclusive: 3.98 µM [quencher, side channel, full curve].
In the case of `CCCOc1ccc(CNC(=S)N/N=C/c2ccc([N+](=O)[O-])cc2)cc1`, the Potency is reported as inconclusive: 7.94 µM [quencher, side channel, partial curve].
For `Cc1csc(NC(=O)c2cc3c(s2)-c2ccccc2OC3)n1`, the Potency was inconclusive: 10 µM [quencher, side channel, partial curve].
In the case of `Cc1ccc(CN2CCN(CC3CC4C=CC3C4)CC2)cc1` (configuration not stated), the Potency is reported as inconclusive: 17.8 µM [inhibitor, partial curve].
With `CCn1c(SCc2ccc(F)cc2)nc2ccccc2c1=O` the Potency was inconclusive: 20 µM [fluorescent, side channel, partial curve].
For `COc1ccc(NS(=O)(=O)c2cc(NC(=O)c3ccco3)ccc2N2CCCCC2)cc1`, the “FP activity change, negative = inhibition” value was inactive: 16.4%.
In the case of `COC1=CC(=O)C=C(OC)C1=O`, the Potency is reported as inconclusive: 35.5 µM [quencher, side channel, single point].
For `Oc1c(CN2CCOCC2)cc(COCc2ccccc2)c2cccnc12`, the “FP activity change, negative = inhibition” value was inactive: -0.842%.
With `CCOCC(=O)Nc1cc(C(=O)Nc2cc(C)cc(C)c2)ccc1Cl` the “FP activity change, negative = inhibition” value was inactive: -2.44%.
`Cc1cc(C)c2nc(-c3ccccn3)cc(C(=O)Nc3ccc(S(=O)(=O)Nc4cc(C)on4)cc3)c2c1` was tested, and the Potency was inconclusive: 12.6 µM [quencher, side channel, partial curve].
For `CN(C(=O)C(C)(C)C)C1c2c(ccc3ccccc23)OCC1CO` (configuration not stated), the Potency was inconclusive: 14.1 µM [fluorescent, side channel, partial curve].
`CCCCCC(=O)N1CCCCC1` was tested, and the Potency was inconclusive: 22.4 µM [inhibitor, partial curve].
For `CCOC(=O)C1CCCN(C(=O)c2cc3c(C)nc4ccccc4c3o2)C1` (configuration not stated), the Potency was inconclusive: 4.47 µM [inhibitor, full curve].
For `Cc1ccc2nc(N(CCCN(C)C)C(=O)COc3ccc(Cl)cc3)sc2c1`, the Potency was inconclusive: 8.91 µM [fluorescent, side channel, full curve, poor fit].
